Measurements: patent US8188081B2, “Methods of treating inflammation using prokineticin 1 receptor antagonists” (Janssen Pharmaceutica, NV, priority 2005, dated 2012)
Certain results were filed several times, with different values. The other results are left out here. An entry can have further records. Values that stand side by side appear to be repeats on other runs, samples or individuals. What stands in brackets tells the records apart. Letters count within one entry.

Target: PK1R (Rattus norvegicus, UniProt Q8R416)
Settings: test compound 1 μM basolateral, 15 min; PK1 10 and 100 nM cumulative; FIGS. 9-11
Method: Methodology. The basic methodology for Using-type ion flux chambers used in these studies was the same as that described in detail above with the following modifications to the experimental protocol. […] The responses to two sequential EFS were used to guage tissue viability and comparability of the responses of individual tissues from each rat and between rats. Tissue conductance was measured at periodic intervals as changes in the amplitudes of brief short-circuit current responses evoked by application of 1 mV amplitude bi-polar pulses from a pulse generator using Ohm's Law. Three to four tissues from each rat were studied. The tissues from a given animal were grouped and assigned accordingly: one control tissue which received only vehicle followed by two consecutive doses of PK1 ligand added in a cumulative fashion to the basolateral surface of the tissue; the remaining two to three tissues from the same animal were assigned to be exposed to a given PK1 receptor antagonist (e.g., 3-4 tissues from 1 rat: Control, Antagonist1, Antagonist2, Antagonist3). Test compound was added to the basolateral tissue side reservoir at a final concentration of 1 μM and allowed a 15 minute incubation period prior to challenge with the PK1 peptide. […]

Chain of UniProt Q8R416 (Q8R416 whole entry): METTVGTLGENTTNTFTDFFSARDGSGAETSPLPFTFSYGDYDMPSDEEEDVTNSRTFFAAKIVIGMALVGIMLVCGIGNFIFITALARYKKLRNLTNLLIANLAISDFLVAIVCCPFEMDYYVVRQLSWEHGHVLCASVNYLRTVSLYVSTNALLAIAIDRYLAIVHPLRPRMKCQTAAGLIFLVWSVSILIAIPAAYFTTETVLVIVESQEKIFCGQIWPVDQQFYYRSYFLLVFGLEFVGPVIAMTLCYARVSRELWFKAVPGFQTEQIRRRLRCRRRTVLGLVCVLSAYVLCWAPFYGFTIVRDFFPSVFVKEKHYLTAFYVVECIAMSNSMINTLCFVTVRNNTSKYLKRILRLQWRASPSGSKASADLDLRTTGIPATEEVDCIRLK

COc1ccc(Cn2c(N[C@H]3CCCC[C@@H]3NC(=N)N)nc(=O)n(Cc3ccc(Cl)c(Cl)c3)c2=O)cc1 [JNJ 28611921]
suppression of the PK1 evoked increase in Isc: not suppressed [passage A] and failed to suppress [passage B]
